# Laboratory results as given in PubChem BioAssay AID686978 (National Center for Advancing Translational Sciences (NCATS), 2013).
# About 64,000 (15%) of roughly 420,000 compounds were called active. Inconclusive means that the source gave no clear call. Such entries were picked first, then a sample of the others. Calls come from the whole dose curve; as a rule, active = well fitted inhibition curve with a large enough effect; inconclusive = small, poorly fitted or top-dose-only effect; inactive = flat fitted curve, though single readings scatter. Potencies of inconclusive entries are left out as doubtful fits.
# Assay: qHTS for Inhibitors of human tyrosyl-DNA phosphodiesterase 1 (TDP1): qHTS in cells in absence of CPT; note: nearly all actives have a fitted effect of over 55% in size
# Details: DT40 Tdp1-/- hTDP1 cells, no CPT, ATP luminescence, 48 h; activity change, negative = growth inhibition: at 46.2 µM (top of the series)
# Procedure, shortened: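 Readout: luminescence from CellTiter-Glo after 30 min in the dark at RT. Cells: DT40 Tdp1-/- with stable hTDP1, 400/well. Exposure: compounds alone, ≥48 hr, 37 °C.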
# % is set by controls: 0 for no effect and ±100 for the full control effect; potency is the fitted concentration of half-maximal effect; tags give direction and shape of the fitted curve.
SMILES,Potency,"activity change, negative = growth inhibition"
C(=N\Nc1ncnc2sc3c(c12)CCC3)/c1ccncc1,"inconclusive [inhibitor, partial curve, poor fit]",
CC(C)(C)c1nnc2sc(SCC(=O)c3ccc(Cl)cc3)nn2c1=O,"inconclusive [inhibitor, partial curve]",
CC1=NNC(=O)c2ccccc2O1,,inactive: -28.1%
CCOC(=O)C1=C(N)N2C(=O)C(C)SC2=C(C(=O)OCC)C1c1cc(OC)c(OC)c(OC)c1 (stereo not given),,inactive: 15.8%
COCCCNC(=O)CNC(=O)c1nn(-c2ccc(OC)cc2)c(=O)c2ccccc12,,inactive: 2.56%
O=C(NCc1cccnc1)C1CCN(S(=O)(=O)c2cc(Cl)ccc2Cl)CC1,"inconclusive [inhibitor, partial curve]",
CC1(C(=O)NS(=O)(=O)C2CC2)CCCN(C(=O)Cc2ccc(F)cc2)C1 (stereo not given),"inconclusive [inhibitor, partial curve, poor fit]",
O=c1c2ccccc2nnn1CCO,,inactive: -0.444%
CCCCC[C@H](O)/C=C/C=C\CCCCCCCC(=O)O,"inconclusive [inhibitor, single point]",
CCOc1ccc(N2C(=O)CC(Sc3nc(-c4cccs4)cc(C(F)(F)F)c3C#N)C2=O)cc1 (stereo not given),"inconclusive [inhibitor, single point]",
COc1nc(N=C(N)N)nc2c(C)cccc12,"inconclusive [inhibitor, partial curve, poor fit]",
CCOc1ccc(C2c3[nH]c4ccccc4c3CCN2Cc2cn(CC)nc2C)cc1 (stereo not given),,inactive: 11.9%
O=Cc1ccc(O)c2ncccc12,active: 0.58 µM,
COc1ccc2oc(C(=O)NCCc3ccccc3)c(C)c2c1,"inconclusive [inhibitor, full curve, poor fit]",
COc1ccc(C(=O)N2CC3(C)CC2CC(C)(C)C3)cc1OC (stereo not given),"inconclusive [inhibitor, single point]",
Cc1cc(=O)n(CC(=O)NC2CC2)c2c1c(C)nn2-c1ccccc1,"inconclusive [inhibitor, partial curve]",
CSc1ccccc1C(=O)N1CCN(c2cccc(Cl)c2)CC1,"inconclusive [inhibitor, single point]",
COc1cccc(-n2c(-c3ccc(Cl)cc3)cc3c2CC(C)(C)CC3=O)c1,"inconclusive [inhibitor, single point]",
COc1ccc(-c2cc(=O)oc3cc(OC(C)C(=O)NCc4ccccn4)ccc23)cc1 (stereo not given),"inconclusive [inhibitor, single point]",
CC1=CC(C)(C)NC(=S)N1c1cccc2ccccc12,active: 25.9 µM,
CC(C)N1CCC(=NNc2ccc(S(=O)(=O)N3CCOCC3)cc2[N+](=O)[O-])CC1,"inconclusive [inhibitor, single point]",
COc1cc2c(=O)n(Cc3ccccc3Cl)c(=O)n(CC(=O)Nc3ccccc3)c2cc1OC,"inconclusive [inhibitor, partial curve]",
Cc1cc2cc(CN(Cc3ccc4c(c3)OCO4)C(=O)c3cnccn3)c3nnnn3c2cc1C,"inconclusive [inhibitor, single point]",

SMILES,Potency,"activity change, negative = growth inhibition"
C=CCOc1c(Br)cc(CNn2nnnc2N)cc1OC,active: 7.31 µM,
FC(F)(F)c1ccc(N/N=C/c2cccnc2)nc1,"inconclusive [inhibitor, partial curve]",
CCNC(=O)CC1C(=O)N(c2ccc(F)cc2)C(=O)N1Cc1ccc(OC)cc1 (stereo not given),,inactive: -8.25%
CCOc1ccc(NS(=O)(=O)c2cccc(C(=O)N(C)Cc3ccco3)c2)cc1,"inconclusive [inhibitor, single point]",
COc1ccc2c(c1)CCCN2C(N)=Nc1ccc(Cl)cc1,active: 23.1 µM,
C/C(=C\C(=O)c1cccnc1)Nc1ccc(O)cc1,"inconclusive [inhibitor, single point]",
O=c1[nH]c(Cc2ccccc2)nc2c1oc1ccccc12,"inconclusive [inhibitor, partial curve]",
COc1ccc(-n2c(=O)c(-c3cn(C)c4ccccc34)nc3cnc(N4CCNCC4)nc32)cc1,"inconclusive [inhibitor, single point]",
COc1ccc(C(=O)NCCc2nnc3ccc(SCC(=O)NCc4ccc(F)cc4)nn23)cc1,,inactive: -1.99%
Cc1ccc(-c2nnc(SCC(=O)NC3CCCC3)nc2-c2ccc(C)cc2)cc1,active: 13 µM,
CC(C)C(=O)N1CCN(c2ccccc2N)CC1,,inactive: -2.9%
Cc1ccc(NC(=O)c2ccccc2)cc1-n1cnnn1,,inactive: -12.4%
CN(CCc1ccccn1)S(=O)(=O)c1ccc2c3c(cccc13)C(=O)N2,"inconclusive [inhibitor, single point]",
CCOc1ccccc1NC(=O)c1cccc(N2C(=O)CCC2=O)c1,,inactive: -7.8%
COc1ccc(NC(=O)COC(=O)CCc2cc(OC)c(OC)c(OC)c2)c([N+](=O)[O-])c1,,inactive: 10.1%
CC1CCN(c2nc3c(c(=O)[nH]c(=O)n3C)n2CC(C)CSc2nnnn2-c2ccccc2)CC1 (stereo not given),"inconclusive [inhibitor, single point]",
C[C@H](CO)N1C[C@H](C)[C@H](CN(C)Cc2ccncc2)Oc2ccc(NC(=O)Nc3ccc(C(F)(F)F)cc3)cc2CC1=O,active: 4.61 µM,
O=C(C1=C[C@@H](c2ccccc2)C[C@@H](OCc2ccc(CO)cc2)O1)N1CCCCCCC1,"inconclusive [inhibitor, single point]",
O=C1OC[C@H](Cc2ccc3c(c2)OCO3)/C1=C\c1ccc2c(c1)OCO2,active: 8.2 µM,
CCOc1cc(/C=C2/SC(=S)N(Cc3ccccc3)C2=O)ccc1O,"inconclusive [inhibitor, single point]",
CCOC1=C2CN(S(=O)(=O)c3ccc(C)cc3)[C@H](c3cccc4ccccc34)C[C@H]2[C@H]2C(=O)N(c3ccccc3)C(=O)[C@H]2C1,,inactive: 7.44%
CNC(=S)N(C)/N=C1/C(=O)N(Cc2c(Cl)cccc2Cl)c2ccccc21,active: 18.4 µM,
